Source: paper PMC4336329 (PLoS ONE, 2015)
Hit rate of the full screen: of about 310,000 compounds, about 2,200 (0.71%) showed an effect of 50% or more. The effect is printed as a negative number. This is one part of the list.

target: human ether-à-go-go-related gene (hERG) potassium channel (human, UniProt Q12809); assay: primary screen, population patch clamp on CHO cells stably expressing hERG
Sequence (Q12809 whole entry, looked up): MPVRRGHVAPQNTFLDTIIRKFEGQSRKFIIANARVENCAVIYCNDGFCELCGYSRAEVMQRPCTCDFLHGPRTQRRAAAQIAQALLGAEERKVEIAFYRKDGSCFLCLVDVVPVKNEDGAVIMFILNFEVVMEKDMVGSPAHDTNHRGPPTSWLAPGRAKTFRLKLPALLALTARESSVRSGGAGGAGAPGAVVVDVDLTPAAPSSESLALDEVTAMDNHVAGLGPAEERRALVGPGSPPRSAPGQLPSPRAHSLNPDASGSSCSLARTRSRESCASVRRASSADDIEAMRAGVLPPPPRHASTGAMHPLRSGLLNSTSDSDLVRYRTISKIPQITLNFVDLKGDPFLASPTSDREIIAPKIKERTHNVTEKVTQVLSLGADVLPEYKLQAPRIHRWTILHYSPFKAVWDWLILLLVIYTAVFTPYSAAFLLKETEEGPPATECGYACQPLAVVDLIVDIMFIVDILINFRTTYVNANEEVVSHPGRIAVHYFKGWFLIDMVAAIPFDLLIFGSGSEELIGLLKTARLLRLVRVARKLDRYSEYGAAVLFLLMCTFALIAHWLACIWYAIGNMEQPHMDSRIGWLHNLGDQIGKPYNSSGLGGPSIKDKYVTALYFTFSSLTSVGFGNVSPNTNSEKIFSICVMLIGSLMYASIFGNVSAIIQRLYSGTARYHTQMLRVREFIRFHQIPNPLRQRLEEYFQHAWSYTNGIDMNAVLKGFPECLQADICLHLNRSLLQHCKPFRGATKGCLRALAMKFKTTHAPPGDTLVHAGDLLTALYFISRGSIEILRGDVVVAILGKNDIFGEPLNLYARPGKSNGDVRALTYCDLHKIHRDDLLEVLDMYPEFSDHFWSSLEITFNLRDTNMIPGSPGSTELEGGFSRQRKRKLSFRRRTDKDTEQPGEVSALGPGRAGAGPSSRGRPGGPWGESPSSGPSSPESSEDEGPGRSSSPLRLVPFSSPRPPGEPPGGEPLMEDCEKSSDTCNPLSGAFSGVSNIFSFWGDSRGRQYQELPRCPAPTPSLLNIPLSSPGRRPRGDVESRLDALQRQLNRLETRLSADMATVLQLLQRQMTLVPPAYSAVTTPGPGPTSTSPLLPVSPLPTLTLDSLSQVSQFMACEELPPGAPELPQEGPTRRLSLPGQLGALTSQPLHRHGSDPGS

Compound | hERG current change (%, negative = inhibition) at 1uM [%]
CCCCN(CCCC)CCCNC(=O)C1CC(c2ccc(C(F)(F)F)cc2)=NO1 (centres unmarked) | -35.8
CCOC(=O)C1=C(C)N=c2s/c(=C/c3cccc([N+](=O)[O-])c3O)c(=O)n2C1c1cc(OC)c(OC)c(OC)c1 (centres unmarked) | 4.73
Cc1nc(SCc2ccc([N+](=O)[O-])cc2)nc2ccccc12 | 0.713
COc1cc(CCC(=O)OCC(=O)NC(=O)c2ccc(Cl)cc2)cc(OC)c1OC | 11.6
COCc1ccc(C(=O)N2CCCC(C(=O)c3ccc(Cl)cc3C)C2)o1 (centres unmarked) | 8.63
Cc1cccc[n+]1CC(=O)Nc1ccc([N+](=O)[O-])cc1Cl.[Cl-] | 19.3
Cc1cc(C)n(-c2ncnc3c2oc2ccccc23)n1 | 7.51
CC1CN(C(=O)CSc2nnc(NC(=O)NC(C)(C)C)s2)CC(C)O1 (centres unmarked) | 10.2
CCCCN(C(=O)c1ccc(-c2ccc([N+](=O)[O-])cc2)o1)c1c(N)n(CC(C)C)c(=O)[nH]c1=O | -3.02
CCOCC(=O)Nc1cc(OC)c(Cl)cc1OC | 15.8
COCCN(CCOC)C(=S)Nc1cc(S(=O)(=O)N(C)C)ccc1C | 5.53
COc1ccc(C)cc1S(=O)(=O)N(C)CC(=O)NC1CCCC1 | 1.79
O=C(NCC1CCCO1)C1CCN(c2ccc(S(=O)(=O)N3CCCC3)cc2)CC1 (centres unmarked) | 4.81
O=[N+]([O-])c1nn(-c2ccccc2)[n+]([O-])c1N1CCN(c2ccccc2)CC1 | 2.54
O=C(CCCCl)Oc1ccc2cc(-c3ccc4ccccc4n3)c(=O)oc2c1 | 5.05
Cc1ccc(S(=O)(=O)NC(=O)Nc2ccc(F)cc2)cc1 | 8.58
CCOc1ccc(C(=O)NCC(C)C)cc1 | 6.68
Cc1ccc(S(=O)(=O)N2CCN=C2SCc2c(F)cccc2Cl)cc1 | 8.24
CCCCc1nc(N)c(C#N)c(-c2ccco2)c1CCC | 4.98
O=c1c(/C=N/O)c(Nc2ccccc2)nc2ccccn12 | 5.13
CN(CC(=O)Nc1cc(Cl)cc(Cl)c1)Cc1cccs1 | 9.22
O=C(C1=C[C@H](c2ccccc2)C[C@H](OCc2ccc(CO)cc2)O1)N1CCN(Cc2ccccc2)CC1 | 3.89

Compound | hERG current change (%, negative = inhibition) at 1uM [%]
CCOC(=O)N1CCN(C(c2ccc(C)cc2)c2sc3nc(C)nn3c2O)CC1 (centres unmarked) | 3.16
CCOc1ccc(/C(CCC(=O)O)=N/NC(=S)NCCc2ccccc2)cc1 | 8.33
Cc1ccc(C(=O)OCC(=O)c2c[nH]c3ccccc23)cc1 | 9.58
O=S(=O)(Cc1cc(Sc2ccccc2)nc(-c2ccccc2)n1)c1ccccc1 | 0.315
Cc1ccc(S(=O)(=O)N2CCC(C(=O)OC(C)C(=O)NC3CCCCC3C)CC2)cc1 (centres unmarked) | 5.88
C/C(=N\O)c1ccc(N2C(=O)C3CC=C(Cl)CC3C2=O)cc1 (centres unmarked) | -1.14
COc1ccc(-c2cc(C(=O)N3CCCC3)c3ccccc3n2)cc1 | 12.9
CCN(CC)C(=O)CSc1nnc(-c2ccc(S(=O)(=O)N3CCCC3)cc2)o1 | -7.45
Cc1ccc(/C=N/NC(=O)c2cc(C)oc2C)o1 | 9.22
N#CC(C(=O)NCc1ccco1)c1nc2ccccc2nc1N1CCOCC1 (centres unmarked) | 2.47
COc1ccccc1NS(=O)(=O)c1ccc2ccccc2c1 | 8.29
Cl.NCCCC[C@H](N)c1nnc([C@H](CC(=O)O)NC(=O)C2CCNCC2)o1 | 8.99
CCCSc1nnc(Cn2c(=O)sc3ccccc32)n1-c1ccccc1 | -2.09
COCCNS(=O)(=O)c1cc(OC)c(C)cc1C | 6.66
CC1(C)CC(=O)C=C(c2cccc(O)c2)C1=O | 8.63
COC(=O)C(C(=O)N1CCN(C)CC1)C1CCCCCC1 (centres unmarked) | 7.72
O=C(c1c[nH]c2ccccc12)C(O)C(c1ccccc1)N1CCOCC1 (centres unmarked) | 12.7
CC(NC(=O)C1CCN(C(=O)c2ccc(F)cc2)CC1)c1ccc(-n2ccnc2)cc1 (centres unmarked) | -12.2
NC(=O)COc1ccccc1 | 10.6
CN(Cc1ccccc1)C(=C(Cl)Cl)/C(=C1/NCCN1Cc1ccc(Cl)nc1)[N+](=O)[O-] | 4.06
O=C(CNc1cccc2ccccc12)N/N=C/c1ccc([N+](=O)[O-])cc1 | 11.6
O=c1[nH]c2ccc(S(=O)(=O)N3CCCCC3)cc2s1 | -1.23
